In publication PMC4336329 (PLoS ONE, 2015):
About 2,200 (0.71%) of roughly 310,000 compounds showed an effect of 50% or more. Effects have a minus sign here. The list shows a part of the results.

These compounds were tested against human ether-à-go-go-related gene (hERG) potassium channel (human, UniProt Q12809) (assay: primary screen, population patch clamp on CHO cells stably expressing hERG).
Chain of human ether-à-go-go-related gene (hERG) potassium channel (Q12809 whole entry, looked up): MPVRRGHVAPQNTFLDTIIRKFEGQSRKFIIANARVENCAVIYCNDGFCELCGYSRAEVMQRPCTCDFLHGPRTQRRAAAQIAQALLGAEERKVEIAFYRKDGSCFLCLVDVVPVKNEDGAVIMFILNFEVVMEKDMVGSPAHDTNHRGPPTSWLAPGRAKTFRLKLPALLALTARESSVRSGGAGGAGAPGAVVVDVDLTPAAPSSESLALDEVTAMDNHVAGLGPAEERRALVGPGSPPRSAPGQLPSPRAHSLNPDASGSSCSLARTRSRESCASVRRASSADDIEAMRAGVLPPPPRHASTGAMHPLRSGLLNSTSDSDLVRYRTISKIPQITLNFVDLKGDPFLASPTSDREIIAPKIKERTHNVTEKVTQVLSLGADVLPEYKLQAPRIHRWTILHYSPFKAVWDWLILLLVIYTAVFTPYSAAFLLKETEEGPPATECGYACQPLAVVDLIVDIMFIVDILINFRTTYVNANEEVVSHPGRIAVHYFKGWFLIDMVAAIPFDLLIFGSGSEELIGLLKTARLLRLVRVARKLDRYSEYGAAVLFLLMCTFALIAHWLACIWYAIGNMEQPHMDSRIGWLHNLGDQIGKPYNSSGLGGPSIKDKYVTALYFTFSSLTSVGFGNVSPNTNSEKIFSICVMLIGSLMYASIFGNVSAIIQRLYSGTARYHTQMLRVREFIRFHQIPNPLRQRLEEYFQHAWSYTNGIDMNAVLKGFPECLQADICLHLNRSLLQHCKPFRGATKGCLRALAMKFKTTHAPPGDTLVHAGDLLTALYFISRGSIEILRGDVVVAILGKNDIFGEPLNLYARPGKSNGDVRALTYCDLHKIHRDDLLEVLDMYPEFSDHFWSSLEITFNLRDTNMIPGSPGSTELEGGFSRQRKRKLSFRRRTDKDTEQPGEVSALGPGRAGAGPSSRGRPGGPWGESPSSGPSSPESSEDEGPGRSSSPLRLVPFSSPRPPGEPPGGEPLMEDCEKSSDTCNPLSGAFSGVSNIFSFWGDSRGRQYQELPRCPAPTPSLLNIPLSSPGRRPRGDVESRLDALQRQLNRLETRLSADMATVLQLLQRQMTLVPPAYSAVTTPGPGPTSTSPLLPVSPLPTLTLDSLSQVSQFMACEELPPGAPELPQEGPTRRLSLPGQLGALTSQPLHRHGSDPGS
For `CC(C(=O)[O-])c1ccc(CC2CCCC2=O)cc1.[Na+]` (stereo not drawn), the “hERG current change (%, negative = inhibition) at 1uM” value was 18.6%.
With `FC(F)C(F)(F)c1cc(-c2ccc(Cl)cc2)n[nH]1` the “hERG current change (%, negative = inhibition) at 1uM” value was 23.1%.
For `O=C(CON=C1c2ccccc2-c2ccccc21)NC12CC3CC(CC(C3)C1)C2`, the “hERG current change (%, negative = inhibition) at 1uM” value was -5.98%.
With `CCOC(=O)C1=C(C)NC(C)=C(C(=O)OCC)C1c1sccc1C` the “hERG current change (%, negative = inhibition) at 1uM” value was 10.8%.
With `CCOC(=O)CN(C(=O)COc1ccc2c(C)cc(=O)oc2c1)c1ccc(OCC)cc1` the “hERG current change (%, negative = inhibition) at 1uM” value was 4.72%.
For `COc1ccc(/C=C2\CCCc3c2nc2ccccc2c3C(=O)O)cc1OC`, the “hERG current change (%, negative = inhibition) at 1uM” value was 8.75%.
For `O=C(Nc1ccc2c(c1)OCCO2)C1CCCN(S(=O)(=O)Cc2ccccc2)C1` (stereo not drawn), the “hERG current change (%, negative = inhibition) at 1uM” value was 2.91%.
With `COc1ccc2[nH]c3c(c2c1)CCn1c-3nc2ccccc2c1=O` the “hERG current change (%, negative = inhibition) at 1uM” value was -2.24%.
With `COc1ccc(N(C(=O)c2cccnc2)S(=O)(=O)c2ccc3c4c(cccc24)C(=O)N3C)cc1` the “hERG current change (%, negative = inhibition) at 1uM” value was 8.72%.
For `CCN(c1ccccc1)S(=O)(=O)c1ccc(Oc2ccc(C(C)=O)cc2OC)nc1`, the “hERG current change (%, negative = inhibition) at 1uM” value was 26%.
For `Cc1ccc2nc(SCC(=O)Nc3ccc4sc(C)nc4c3)c(C#N)cc2c1`, the “hERG current change (%, negative = inhibition) at 1uM” value was 12.1%.
In the case of `Cc1ccccc1Cn1cc(NC(=O)c2cc(-c3cccs3)on2)cn1`, the “hERG current change (%, negative = inhibition) at 1uM” value is reported as -11.3%.
For `COc1cc(OC)c(OC)cc1/C=C1\Oc2cc(OCC(=O)N3Cc4ccccc4C[C@H]3C(=O)O)ccc2C1=O`, the “hERG current change (%, negative = inhibition) at 1uM” value was 1.72%.
For `Nc1nnc(CC(=O)N/N=C\c2cc([N+](=O)[O-])ccc2O)s1`, the “hERG current change (%, negative = inhibition) at 1uM” value was 15.4%.
In the case of `Cc1ccc(C(=O)CN2C(=O)C(=O)N(Cc3ccccc3)C2=O)cc1`, the “hERG current change (%, negative = inhibition) at 1uM” value is reported as 7.02%.
`O=C(Cn1ncn2c(cc3cc(F)ccc32)c1=O)N1CCC2(CC1)OCCO2` was tested, and the “hERG current change (%, negative = inhibition) at 1uM” value was 8%.
With `O=C(COS(=O)c1ccccc1)Nc1cc(Cl)ccc1N1CCOCC1` (stereo not drawn) the “hERG current change (%, negative = inhibition) at 1uM” value was 4.99%.
In the case of `COc1cccc(Oc2ccc(S(=O)(=O)N3CCCC3)cc2[N+](=O)[O-])c1`, the “hERG current change (%, negative = inhibition) at 1uM” value is reported as 1.74%.
`O=C(N1CCCCC1)N1CCN(S(=O)(=O)c2ccc(Cl)cc2)CC1` was tested, and the “hERG current change (%, negative = inhibition) at 1uM” value was -4.28%.
In the case of `O=C(CN1C(=O)NC2(CCCCC2)C1=O)N1CCN(S(=O)(=O)c2ccc(Cl)s2)CC1`, the “hERG current change (%, negative = inhibition) at 1uM” value is reported as 19.2%.
`CCCCN(CCCC)CCCNC(=O)C1CC(c2ccc(C(F)(F)F)cc2)=NO1` (stereo not drawn) was tested, and the “hERG current change (%, negative = inhibition) at 1uM” value was -35.8%.
For `CCOC(=O)C1=C(C)N=c2s/c(=C/c3cccc([N+](=O)[O-])c3O)c(=O)n2C1c1cc(OC)c(OC)c(OC)c1` (stereo not drawn), the “hERG current change (%, negative = inhibition) at 1uM” value was 4.73%.
With `Cc1nc(SCc2ccc([N+](=O)[O-])cc2)nc2ccccc12` the “hERG current change (%, negative = inhibition) at 1uM” value was 0.713%.
With `COc1cc(CCC(=O)OCC(=O)NC(=O)c2ccc(Cl)cc2)cc(OC)c1OC` the “hERG current change (%, negative = inhibition) at 1uM” value was 11.6%.
For `COCc1ccc(C(=O)N2CCCC(C(=O)c3ccc(Cl)cc3C)C2)o1` (stereo not drawn), the “hERG current change (%, negative = inhibition) at 1uM” value was 8.63%.
`Cc1cccc[n+]1CC(=O)Nc1ccc([N+](=O)[O-])cc1Cl.[Cl-]` was tested, and the “hERG current change (%, negative = inhibition) at 1uM” value was 19.3%.
In the case of `Cc1cc(C)n(-c2ncnc3c2oc2ccccc23)n1`, the “hERG current change (%, negative = inhibition) at 1uM” value is reported as 7.51%.
In the case of `CC1CN(C(=O)CSc2nnc(NC(=O)NC(C)(C)C)s2)CC(C)O1` (stereo not drawn), the “hERG current change (%, negative = inhibition) at 1uM” value is reported as 10.2%.
In the case of `CCCCN(C(=O)c1ccc(-c2ccc([N+](=O)[O-])cc2)o1)c1c(N)n(CC(C)C)c(=O)[nH]c1=O`, the “hERG current change (%, negative = inhibition) at 1uM” value is reported as -3.02%.
`CCOCC(=O)Nc1cc(OC)c(Cl)cc1OC` was tested, and the “hERG current change (%, negative = inhibition) at 1uM” value was 15.8%.
`COCCN(CCOC)C(=S)Nc1cc(S(=O)(=O)N(C)C)ccc1C` was tested, and the “hERG current change (%, negative = inhibition) at 1uM” value was 5.53%.
In the case of `COc1ccc(C)cc1S(=O)(=O)N(C)CC(=O)NC1CCCC1`, the “hERG current change (%, negative = inhibition) at 1uM” value is reported as 1.79%.
`O=C(NCC1CCCO1)C1CCN(c2ccc(S(=O)(=O)N3CCCC3)cc2)CC1` (stereo not drawn) was tested, and the “hERG current change (%, negative = inhibition) at 1uM” value was 4.81%.
For `O=[N+]([O-])c1nn(-c2ccccc2)[n+]([O-])c1N1CCN(c2ccccc2)CC1`, the “hERG current change (%, negative = inhibition) at 1uM” value was 2.54%.
In the case of `O=C(CCCCl)Oc1ccc2cc(-c3ccc4ccccc4n3)c(=O)oc2c1`, the “hERG current change (%, negative = inhibition) at 1uM” value is reported as 5.05%.
In the case of `Cc1ccc(S(=O)(=O)NC(=O)Nc2ccc(F)cc2)cc1`, the “hERG current change (%, negative = inhibition) at 1uM” value is reported as 8.58%.
For `CCOc1ccc(C(=O)NCC(C)C)cc1`, the “hERG current change (%, negative = inhibition) at 1uM” value was 6.68%.
In the case of `Cc1ccc(S(=O)(=O)N2CCN=C2SCc2c(F)cccc2Cl)cc1`, the “hERG current change (%, negative = inhibition) at 1uM” value is reported as 8.24%.
`CCCCc1nc(N)c(C#N)c(-c2ccco2)c1CCC` was tested, and the “hERG current change (%, negative = inhibition) at 1uM” value was 4.98%.
For `O=c1c(/C=N/O)c(Nc2ccccc2)nc2ccccn12`, the “hERG current change (%, negative = inhibition) at 1uM” value was 5.13%.
`CN(CC(=O)Nc1cc(Cl)cc(Cl)c1)Cc1cccs1` was tested, and the “hERG current change (%, negative = inhibition) at 1uM” value was 9.22%.
For `O=C(C1=C[C@H](c2ccccc2)C[C@H](OCc2ccc(CO)cc2)O1)N1CCN(Cc2ccccc2)CC1`, the “hERG current change (%, negative = inhibition) at 1uM” value was 3.89%.
With `CCOC(=O)N1CCN(C(c2ccc(C)cc2)c2sc3nc(C)nn3c2O)CC1` (stereo not drawn) the “hERG current change (%, negative = inhibition) at 1uM” value was 3.16%.
With `CCOc1ccc(/C(CCC(=O)O)=N/NC(=S)NCCc2ccccc2)cc1` the “hERG current change (%, negative = inhibition) at 1uM” value was 8.33%.
For `Cc1ccc(C(=O)OCC(=O)c2c[nH]c3ccccc23)cc1`, the “hERG current change (%, negative = inhibition) at 1uM” value was 9.58%.
`O=S(=O)(Cc1cc(Sc2ccccc2)nc(-c2ccccc2)n1)c1ccccc1` was tested, and the “hERG current change (%, negative = inhibition) at 1uM” value was 0.315%.
In the case of `Cc1ccc(S(=O)(=O)N2CCC(C(=O)OC(C)C(=O)NC3CCCCC3C)CC2)cc1` (stereo not drawn), the “hERG current change (%, negative = inhibition) at 1uM” value is reported as 5.88%.
With `C/C(=N\O)c1ccc(N2C(=O)C3CC=C(Cl)CC3C2=O)cc1` (stereo not drawn) the “hERG current change (%, negative = inhibition) at 1uM” value was -1.14%.
With `COc1ccc(-c2cc(C(=O)N3CCCC3)c3ccccc3n2)cc1` the “hERG current change (%, negative = inhibition) at 1uM” value was 12.9%.
In the case of `CCN(CC)C(=O)CSc1nnc(-c2ccc(S(=O)(=O)N3CCCC3)cc2)o1`, the “hERG current change (%, negative = inhibition) at 1uM” value is reported as -7.45%.
With `Cc1ccc(/C=N/NC(=O)c2cc(C)oc2C)o1` the “hERG current change (%, negative = inhibition) at 1uM” value was 9.22%.
In the case of `N#CC(C(=O)NCc1ccco1)c1nc2ccccc2nc1N1CCOCC1` (stereo not drawn), the “hERG current change (%, negative = inhibition) at 1uM” value is reported as 2.47%.
`COc1ccccc1NS(=O)(=O)c1ccc2ccccc2c1` was tested, and the “hERG current change (%, negative = inhibition) at 1uM” value was 8.29%.
`Cl.NCCCC[C@H](N)c1nnc([C@H](CC(=O)O)NC(=O)C2CCNCC2)o1` was tested, and the “hERG current change (%, negative = inhibition) at 1uM” value was 8.99%.
